The list shows a part of the results.
Key:
Experiment in all cases: glycan array binding signal (z-score within array); higher = stronger binding
Conditions in all cases: glycan notation: IUPAC condensed, linker removed
[1] = target: Fuc(a1-2)Gal
Procedure, shortened: (§1)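 Negative Z-scores can be read as non-binding. The Z-score is calculated within each array and then averaged across arrays of one protein sequence at different concentrations or buffers and across linkers. Arrays, 3228 in all, were curated from the Consortium for Functional Glycomics database and kept only where the protein sequence was available.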

[2] = target: Fuc(a1-2)Gal(b1-3)GalNAc
Procedure, shortened: as §1

[3] = target: Fuc(a1-2)Gal(b1-3)GalNAc(a1-3)[Fuc(a1-2)]Gal(b1-4)Glc
Procedure, shortened: as §1

[4] = target: Fuc(a1-2)Gal(b1-3)GalNAc(a1-3)[Fuc(a1-2)]Gal(b1-4)GlcNAc
Procedure, shortened: as §1

[5] = target: Fuc(a1-2)Gal(b1-3)GalNAc(b1-3)Gal
Procedure, shortened: as §1

[6] = target: Fuc(a1-2)Gal(b1-3)GalNAc(b1-3)Gal(a1-4)Gal(b1-4)Glc
Procedure, shortened: as §1

[7] = target: Fuc(a1-2)Gal(b1-3)GalNAc(b1-4)[Neu5Ac(a2-3)]Gal(b1-4)Glc
Procedure, shortened: as §1

[8] = target: Fuc(a1-2)Gal(b1-3)GlcNAc
Procedure, shortened: as §1

[9] = target: Fuc(a1-2)Gal(b1-3)GlcNAc(b1-2)Man(a1-3)[Fuc(a1-2)Gal(b1-3)GlcNAc(b1-2)Man(a1-6)]Man(b1-4)GlcNAc(b1-4)GlcNAc
Procedure, shortened: as §1

[10] = target: Fuc(a1-2)Gal(b1-3)GlcNAc(b1-2)Man(a1-3)[Fuc(a1-2)Gal(b1-3)GlcNAc(b1-2)Man(a1-6)]Man(b1-4)GlcNAc(b1-4)[Fuc(a1-6)]GlcNAc
Procedure, shortened: as §1

[11] = target: Fuc(a1-2)Gal(b1-3)GlcNAc(b1-3)Gal(b1-4)Glc
Procedure, shortened: as §1

[12] = target: Fuc(a1-2)Gal(b1-3)GlcNAc(b1-3)GalNAc
Procedure, shortened: as §1

[13] = target: Fuc(a1-2)Gal(b1-3)GlcNAc(b1-3)[Fuc(a1-2)Gal(b1-3)GlcNAc(b1-6)]GalNAc
Procedure, shortened: as §1

[14] = target: Fuc(a1-2)Gal(b1-3)GlcNAc(b1-3)[Gal(b1-4)GlcNAc(b1-6)]Gal(b1-4)Glc
Procedure, shortened: as §1

[15] = target: Fuc(a1-2)Gal(b1-3)GlcNAc(b1-3)[Neu5Ac(a2-6)Gal(b1-4)GlcNAc(b1-6)]Gal(b1-4)Glc
Procedure, shortened: as §1

[16] = target: Fuc(a1-2)Gal(b1-3)GlcNAc6S
Procedure, shortened: as §1

[17] = target: Fuc(a1-2)Gal(b1-3)[Fuc(a1-4)]GlcNAc
Procedure, shortened: as §1

[18] = target: Fuc(a1-2)Gal(b1-3)[Fuc(a1-4)]GlcNAc(b1-2)Man(a1-3)[Fuc(a1-2)Gal(b1-3)[Fuc(a1-4)]GlcNAc(b1-2)Man(a1-3)]Man(b1-4)GlcNAc(b1-4)GlcNAc
Procedure, shortened: as §1

[19] = target: Fuc(a1-2)Gal(b1-3)[Fuc(a1-4)]GlcNAc(b1-2)Man(a1-3)[Fuc(a1-2)Gal(b1-3)[Fuc(a1-4)]GlcNAc(b1-2)Man(a1-6)]Man(b1-4)GlcNAc(b1-4)[Fuc(a1-6)]GlcNAc(b1-4)[Fuc(a1-6)]GlcNAc
Procedure, shortened: as §1

[20] = target: Fuc(a1-2)Gal(b1-3)[Fuc(a1-4)]GlcNAc(b1-3)[Fuc(a1-3)[Gal(b1-4)]GlcNAc(b1-6)]Gal(b1-4)Glc
Procedure, shortened: as §1

[21] = target: Fuc(a1-2)Gal(b1-3)[Fuc(a1-4)]GlcNAc(b1-3)[Gal(b1-4)GlcNAc(b1-6)]Gal(b1-4)Glc
Procedure, shortened: as §1

[22] = target: Fuc(a1-2)Gal(b1-4)Glc
Procedure, shortened: as §1

[23] = target: Fuc(a1-2)Gal(b1-4)Glc6S
Procedure, shortened: as §1

[24] = target: Fuc(a1-2)Gal(b1-4)GlcNAc
Procedure, shortened: as §1

[25] = target: Fuc(a1-2)Gal(b1-4)GlcNAc(b1-2)Man
Procedure, shortened: as §1

[26] = target: Fuc(a1-2)Gal(b1-4)GlcNAc(b1-2)Man(a1-3)[Fuc(a1-2)Gal(b1-4)GlcNAc(b1-2)Man(a1-6)]Man(b1-4)GlcNAc(b1-4)GlcNAc
Procedure, shortened: as §1

[27] = target: Fuc(a1-2)Gal(b1-4)GlcNAc(b1-2)Man(a1-3)[Fuc(a1-2)Gal(b1-4)GlcNAc(b1-2)Man(a1-6)]Man(b1-4)GlcNAc(b1-4)[Fuc(a1-6)]GlcNAc
Procedure, shortened: as §1

[28] = target: Fuc(a1-2)Gal(b1-4)GlcNAc(b1-2)[Fuc(a1-2)Gal(b1-4)GlcNAc(b1-4)]Man(a1-3)[Fuc(a1-2)Gal(b1-4)GlcNAc(b1-2)Man(a1-6)]Man(b1-4)GlcNAc(b1-4)GlcNAc
Procedure, shortened: as §1

[29] = target: Fuc(a1-2)Gal(b1-4)GlcNAc(b1-3)Gal(b1-4)GlcNAc
Procedure, shortened: as §1

[30] = target: Fuc(a1-2)Gal(b1-4)GlcNAc(b1-3)Gal(b1-4)GlcNAc(b1-2)Man(a1-3)[Fuc(a1-2)Gal(b1-4)GlcNAc(b1-3)Gal(b1-4)GlcNAc(b1-2)Man(a1-6)]Man(b1-4)GlcNAc(b1-4)GlcNAc
Procedure, shortened: as §1

[31] = target: Fuc(a1-2)Gal(b1-4)GlcNAc(b1-3)Gal(b1-4)GlcNAc(b1-3)Gal(b1-4)GlcNAc
Procedure, shortened: as §1

[32] = target: Fuc(a1-2)Gal(b1-4)GlcNAc(b1-3)GalNAc
Procedure, shortened: as §1

[33] = target: Fuc(a1-2)Gal(b1-4)GlcNAc(b1-3)[Fuc(a1-2)Gal(b1-4)GlcNAc(b1-6)]GalNAc
Procedure, shortened: as §1

[34] = target: Fuc(a1-2)Gal(b1-4)GlcNAc(b1-3)[Fuc(a1-3)[Gal(b1-4)]GlcNAc(b1-6)]Gal(b1-4)Glc
Procedure, shortened: as §1

[35] = target: Fuc(a1-2)Gal(b1-4)GlcNAc(b1-6)GalNAc
Procedure, shortened: as §1

[36] = target: Fuc(a1-2)Gal(b1-4)GlcNAc6S
Procedure, shortened: as §1

[37] = target: Fuc(a1-2)Gal(b1-4)[Fuc(a1-3)]GlcNAc
Procedure, shortened: as §1

B1: RBMC2 (Vibrio cholerae) (protein)
chain: KISVRSGFAIDAIGASASTLVGGTGGNLNAAVNVKDIKAIDLTWGKYYWGGYHLLALDFRMSNGSVISMGSKNYAYSKQTERFTVPAGSRIKGIKAWTAGWLLDGVQFELA
glycan array binding signal (z-score) [1]: -0.247 | glycan array binding signal (z-score) [2]: -0.229 | glycan array binding signal (z-score) [3]: -0.388 | glycan array binding signal (z-score) [4]: -0.358 | glycan array binding signal (z-score) [5]: -0.1 | glycan array binding signal (z-score) [6]: -0.089 | glycan array binding signal (z-score) [7]: -0.315 | glycan array binding signal (z-score) [8]: -0.258 | glycan array binding signal (z-score) [9]: 1.42 | glycan array binding signal (z-score) [10]: -0.055 | glycan array binding signal (z-score) [11]: -0.299 | glycan array binding signal (z-score) [12]: -0.315 | glycan array binding signal (z-score) [13]: -0.25 | glycan array binding signal (z-score) [14]: -0.308 | glycan array binding signal (z-score) [15]: -0.25 | glycan array binding signal (z-score) [16]: -0.344 | glycan array binding signal (z-score) [17]: -0.261 | glycan array binding signal (z-score) [18]: -0.045 | glycan array binding signal (z-score) [19]: -0.365 | glycan array binding signal (z-score) [20]: -0.224 | glycan array binding signal (z-score) [21]: -0.282 | glycan array binding signal (z-score) [22]: -0.416 | glycan array binding signal (z-score) [23]: -0.289 | glycan array binding signal (z-score) [24]: -0.356 | glycan array binding signal (z-score) [25]: -0.138 | glycan array binding signal (z-score) [26]: 1.19 | glycan array binding signal (z-score) [27]: 0.062 | glycan array binding signal (z-score) [28]: 0.016 | glycan array binding signal (z-score) [29]: -0.244 | glycan array binding signal (z-score) [30]: 3.69 | glycan array binding signal (z-score) [31]: -0.422 | glycan array binding signal (z-score) [32]: -0.386 | glycan array binding signal (z-score) [33]: -0.474 | glycan array binding signal (z-score) [34]: -0.262 | glycan array binding signal (z-score) [35]: -0.267 | glycan array binding signal (z-score) [36]: -0.409 | glycan array binding signal (z-score) [37]: -0.357
